Patent publication US20250340646A1 (ELPIS BIOPHARMACEUTICALS, published 2025)

Molecular target: PD-L1 on PD-L1 aAPC/CHOK1 cells (Promega J1250)
Assay: cell-based or functional assay

| Binder | NFAT reporter EC50 [nM] |
| --- | --- |
| IL-2/anti-PD-L1 Fab EP412/EP325/EP205 (bispecific antibody, human IgG1, lambda, L234A L235A) APASSSTKKTQLQLEHLLLDLQMILNGINNYKNPLLTDMLTRKFYMPKKATELKHLQCLEEELKPLEEVLNLAQSKNFHLRPRDLISNINVIVLELKGSETTFMCEYADETATIVEFLNRWITFSQSIISTLT[letters of human IgG1 Fc with L234A L235A P329G S354C T366W K409A (EU numbers) omitted] heavy: QVQLVQSGAEVKKPGSSVKVSCKASGGTFSSYAISWVRQAPGQGLEWMGGIIPIFGTANYAQKFQGRVTITADESTSTAYMELSSLRSEDTAVYYCARDKWYGSAWRGDYWGQGTLVTVSSASTKGPSVFPLAPSSKSTSGGTAALGCLVKDYFPEPVTVSWNSGALTSGVHTFPAVLQSSGLYSLSSVVTVPSSSLGTQTYICNVNHKPSNTKVDKKVEPKSCDKTHTCPPCPAPEAAGGPSVFLFPPKPKDTLMISRTPEVTCVVVDVSHEDPEVKFNWYVDGVEVHNAKTKPREEQYNSTYRVVSVLTVLHQDWLNGKEYKCKVSNKALGAPIEKTISKAKGQPREPQVCTLPPSRDELTKNQVSLSCAVKGFYPSDIAVEWESNGQPENNYKTTPPVLDSDGSFKLVSKLTVDKSRWQQGNVFSCSVMHEALHNHYTQKSLSLSPGK light: QSVLTQPPSASGTPGQRVTISCSGSYSNIGSNFVNWYQQLPGTAPKLLIHFNNQRPSGVPDRFSGSRSGTSASLAISGLQSEDEADYFCSTWDDSLKGPIFGGGTKLTVLGQPKANPTVTLFPPSSEELQANKATLVCLISDFYPGAVTVAWKADGSPVKAGVETTKPSKQSNNKYAASSYLSLTPEQWKSHRSYSCQVTHEGSTVEKTVAPTECS | 2.52 |
| anti-PD-L1 Fab/IL-2 fusion EP362/EP365/EP205 (bispecific antibody, human IgG1, lambda, L234A L235A) heavy 1: QVQLVQSGAEVKKPGSSVKVSCKASGGTFSSYAISWVRQAPGQGLEWMGGIIPIFGTANYAQKFQGRVTITADESTSTAYMELSSLRSEDTAVYYCARDKWYGSAWRGDYWGQGTLVTVSSASTKGPSVFPLAPSSKSTSGGTAALGCLVKDYFPEPVTVSWNSGALTSGVHTFPAVLQSSGLYSLSSVVTVPSSSLGTQTYICNVNHKPSNTKVDKKV[letters of human IgG1 Fc with L234A L235A P329G S354C T366W K409A (EU numbers) omitted] heavy 2: QVQLVQSGAEVKKPGSSVKVSCKASGGTFSSYAISWVRQAPGQGLEWMGGIIPIFGTANYAQKFQGRVTITADESTSTAYMELSSLRSEDTAVYYCARDKWYGSAWRGDYWGQGTLVTVSSASTKGPSVFPLAPSSKSTSGGTAALGCLVKDYFPEPVTVSWNSGALTSGVHTFPAVLQSSGLYSLSSVVTVPSSSLGTQTYICNVNHKPSNTKVDKKVEPKSCDKTHTCPPCPAPEAAGGPSVFLFPPKPKDTLMISRTPEVTCVVVDVSHEDPEVKFNWYVDGVEVHNAKTKPREEQYNSTYRVVSVLTVLHQDWLNGKEYKCKVSNKALGAPIEKTISKAKGQPREPQVCTLPPSRDELTKNQVSLSCAVKGFYPSDIAVEWESNGQPENNYKTTPPVLDSDGSFKLVSKLTVDKSRWQQGNVFSCSVMHEALHNHYTQKSLSLSPGKGGGGSGGGGSGGGGSGGGGSAPASSSTKKTQLQLEHLLLDLQMILNGINNYKNPKLTVMLTFKFSMPKKATELKHLQCLEEELKPLEEVLNLAQSKNFHLTPRDAISNIRVIIQELKGSETTFMCEYADETATIVEFLNRWITFSQSIISTLT light: QSVLTQPPSASGTPGQRVTISCSGSYSNIGSNFVNWYQQLPGTAPKLLIHFNNQRPSGVPDRFSGSRSGTSASLAISGLQSEDEADYFCSTWDDSLKGPIFGGGTKLTVLGQPKANPTVTLFPPSSEELQANKATLVCLISDFYPGAVTVAWKADGSPVKAGVETTKPSKQSNNKYAASSYLSLTPEQWKSHRSYSCQVTHEGSTVEKTVAPTECS | 0.362 |
| IL-2/anti-PD-L1 Fab EP415/EP325/EP205 (bispecific antibody, human IgG1, lambda, L234A L235A) APASSSTKKTQLQLEHLLLDLQMILNGINNYKNPLLTDMLTRKFYMPKKATELKHLQCLEEELKPLEEVLNLAQSKNFHLTARDAIDNINVIVQELKGSETTFMCEYADETATIVEFLNRWITFSQSIISTLT[letters of human IgG1 Fc with C220S L234A L235A P329G S354C T366W K409A (EU numbers) omitted] heavy: QVQLVQSGAEVKKPGSSVKVSCKASGGTFSSYAISWVRQAPGQGLEWMGGIIPIFGTANYAQKFQGRVTITADESTSTAYMELSSLRSEDTAVYYCARDKWYGSAWRGDYWGQGTLVTVSSASTKGPSVFPLAPSSKSTSGGTAALGCLVKDYFPEPVTVSWNSGALTSGVHTFPAVLQSSGLYSLSSVVTVPSSSLGTQTYICNVNHKPSNTKVDKKVEPKSCDKTHTCPPCPAPEAAGGPSVFLFPPKPKDTLMISRTPEVTCVVVDVSHEDPEVKFNWYVDGVEVHNAKTKPREEQYNSTYRVVSVLTVLHQDWLNGKEYKCKVSNKALGAPIEKTISKAKGQPREPQVCTLPPSRDELTKNQVSLSCAVKGFYPSDIAVEWESNGQPENNYKTTPPVLDSDGSFKLVSKLTVDKSRWQQGNVFSCSVMHEALHNHYTQKSLSLSPGK light: QSVLTQPPSASGTPGQRVTISCSGSYSNIGSNFVNWYQQLPGTAPKLLIHFNNQRPSGVPDRFSGSRSGTSASLAISGLQSEDEADYFCSTWDDSLKGPIFGGGTKLTVLGQPKANPTVTLFPPSSEELQANKATLVCLISDFYPGAVTVAWKADGSPVKAGVETTKPSKQSNNKYAASSYLSLTPEQWKSHRSYSCQVTHEGSTVEKTVAPTECS | 2.48 |
| IL-2/anti-PD-L1 Fab EP418/EP325/EP205 (bispecific antibody, human IgG1, lambda, L234A L235A) APASSSTKKTQLQLEHLLLDLQMILNGINNYKNPLLTDMLTRKFYMPKKATELKHLQCLEEELKPLEEVLNLAQSKNFHLTPRDAIDNIRVIILELKGSETTFMCEYADETATIVEFLNRWITFSQSIISTLT[letters of human IgG1 Fc with C220S L234A L235A P329G S354C T366W K409A (EU numbers) omitted] heavy: QVQLVQSGAEVKKPGSSVKVSCKASGGTFSSYAISWVRQAPGQGLEWMGGIIPIFGTANYAQKFQGRVTITADESTSTAYMELSSLRSEDTAVYYCARDKWYGSAWRGDYWGQGTLVTVSSASTKGPSVFPLAPSSKSTSGGTAALGCLVKDYFPEPVTVSWNSGALTSGVHTFPAVLQSSGLYSLSSVVTVPSSSLGTQTYICNVNHKPSNTKVDKKVEPKSCDKTHTCPPCPAPEAAGGPSVFLFPPKPKDTLMISRTPEVTCVVVDVSHEDPEVKFNWYVDGVEVHNAKTKPREEQYNSTYRVVSVLTVLHQDWLNGKEYKCKVSNKALGAPIEKTISKAKGQPREPQVCTLPPSRDELTKNQVSLSCAVKGFYPSDIAVEWESNGQPENNYKTTPPVLDSDGSFKLVSKLTVDKSRWQQGNVFSCSVMHEALHNHYTQKSLSLSPGK light: QSVLTQPPSASGTPGQRVTISCSGSYSNIGSNFVNWYQQLPGTAPKLLIHFNNQRPSGVPDRFSGSRSGTSASLAISGLQSEDEADYFCSTWDDSLKGPIFGGGTKLTVLGQPKANPTVTLFPPSSEELQANKATLVCLISDFYPGAVTVAWKADGSPVKAGVETTKPSKQSNNKYAASSYLSLTPEQWKSHRSYSCQVTHEGSTVEKTVAPTECS | 1.87 |
| anti-PD-L1 Fab/IL-2 fusion EP362/EP364/EP205 (bispecific antibody, human IgG1, lambda, L234A L235A) heavy 1: QVQLVQSGAEVKKPGSSVKVSCKASGGTFSSYAISWVRQAPGQGLEWMGGIIPIFGTANYAQKFQGRVTITADESTSTAYMELSSLRSEDTAVYYCARDKWYGSAWRGDYWGQGTLVTVSSASTKGPSVFPLAPSSKSTSGGTAALGCLVKDYFPEPVTVSWNSGALTSGVHTFPAVLQSSGLYSLSSVVTVPSSSLGTQTYICNVNHKPSNTKVDKKV[letters of human IgG1 Fc with L234A L235A P329G S354C T366W K409A (EU numbers) omitted] heavy 2: QVQLVQSGAEVKKPGSSVKVSCKASGGTFSSYAISWVRQAPGQGLEWMGGIIPIFGTANYAQKFQGRVTITADESTSTAYMELSSLRSEDTAVYYCARDKWYGSAWRGDYWGQGTLVTVSSASTKGPSVFPLAPSSKSTSGGTAALGCLVKDYFPEPVTVSWNSGALTSGVHTFPAVLQSSGLYSLSSVVTVPSSSLGTQTYICNVNHKPSNTKVDKKVEPKSCDKTHTCPPCPAPEAAGGPSVFLFPPKPKDTLMISRTPEVTCVVVDVSHEDPEVKFNWYVDGVEVHNAKTKPREEQYNSTYRVVSVLTVLHQDWLNGKEYKCKVSNKALGAPIEKTISKAKGQPREPQVCTLPPSRDELTKNQVSLSCAVKGFYPSDIAVEWESNGQPENNYKTTPPVLDSDGSFKLVSKLTVDKSRWQQGNVFSCSVMHEALHNHYTQKSLSLSPGKGGGGSGGGGSGGGGSGGGGSAPASSSTKKTQLQLEHLLLDLQMILNGINNYKNPKLTRMLTFKFYMPKKATELKHLQCLEEELKPLEEVLNLAQSKNFHLTARDAVDNMRVIIQELKGSETTFMCEYADETATIVEFLNRWITFSQSIISTLT light: QSVLTQPPSASGTPGQRVTISCSGSYSNIGSNFVNWYQQLPGTAPKLLIHFNNQRPSGVPDRFSGSRSGTSASLAISGLQSEDEADYFCSTWDDSLKGPIFGGGTKLTVLGQPKANPTVTLFPPSSEELQANKATLVCLISDFYPGAVTVAWKADGSPVKAGVETTKPSKQSNNKYAASSYLSLTPEQWKSHRSYSCQVTHEGSTVEKTVAPTECS | 0.356 |
